# A number of entries come with more than one value. The other results are left out here. The source may hold further records. Results that share an entry are repeats (runs, samples, wells, individuals or studies). Signs of the kind (2×) say how often a value occurs here.
# Tested on: 292921-168-R tumor spheroid viability
# Experiment: Anticancer human tumor 292921-168-R patient-derived pancreatic carcinoma cell line growth inhibition
# Conditions: compound 30 pM; stronger effect = lower value; spheroids with HUVEC and MSC
# Text: Multicellular complex tumor spheroid response to DNA repair inhibitors in combination with DNA-damaging drugs
# This study explores the anticancer activities of DNA-damaging drugs and inhibitors of DNA damage repair, both as single agents and in combinations. Complex tumor spheroids comprised of malignant cells, endothelial cells and mesenchymal stem cells served as an in vitro model for human solid tumors. This model system incorporates physiologically relevant features and patient-derived or established malignant cell lines with clinically relevant genetic alterations from many tumor types. Twenty-six patient-derived or established malignant cell lines were evaluated representing sarcoma, melanoma, small cell lung cancer (SCLC), non-small cell lung cancer (NSCLC), as well as bladder, ovarian and pancreatic cancers. The concentration ranges selected for each drug and investigational agent were based upon clinically achievable concentrations if the clinical Cmax of the agent was known.
# Compounds. […] If the clinical Cmax for an agent had not been determined, the highest concentration tested was 10 microM. […]
# 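Further: spheroids exposed to compounds for 7 days.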
compound,measurement,value
COc1cc2c(cc1O)CCNC21CSC2c3c(OC(C)=O)c(C)c4c(c3C(COC1=O)N1C(O)C3Cc5cc(C)c(OC)c(O)c5C(C21)N3C)OCO4 (stereo unspecified),"viability, T/C","103, 101, 102 (2×), 99.6, 78.5, 104, 110, 107, 94.1%"

# Reference: PubChem BioAssay AID1845196 (Molecular Pharmacology Branch, DTP, NCI, 2023)
